Values marked as one replicate rest on one cluster of the flow cell; about a third of the high ones do not repeat.
The sequences below were run on ATP (assay: switch fluorescence ratio, 500 uM ATP over buffer (Cy3 cluster intensity, sum of 5 cycles each) (fold (ratio)); higher = stronger signal-on switching upon ATP binding; sequences stand for … in TCGTCGGCAGCGTCAGATGTGTATAAGAGACAGTTTTTTTTTTTTTTTTTTTTTTTTT…TC). Settings: aptamer strand: ATP DNA aptamer (quencher-CACCTGGGGGAGTATTGCGGAGGAAGG + anchor), 100 nM annealed; ATP concentration: 500 uM; one replicate.
Procedure, shortened: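 Cy3-labelled switching-strand clusters on a modified Illumina MiSeq flow-cell were annealed to 100 nM quencher-labelled ATP aptamer and imaged first in selection buffer, then after 15 min with 500 uM ATP at 22 °C. NaOH stripping and re-annealing separated each of five buffer/ATP cycles, and clusters outside 100-1000 RFU were excluded. The fluorescence ratio sums target-cycle Cy3 intensity over buffer-cycle Cy3 intensity per cluster and averages it per switch-domain sequence.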
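Also: ATP exposure 15 min at 22 °C before imaging.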

Sequence | switch fluorescence ratio
AAGATATTTG | 0.961
TGGTGTCGAA | 0.982
ACGCAACGCG | 1.01
AAACTCGGCC | 1.1
CAGCATGCGG | 1
ACTTTGTTCA | 1.05
GCTTTCGGAT | 1.03
CATTTGGTTG | 0.959
TAGTCGGCGA | 0.978
GGTGCTATAT | 1.06
GTAGGGCATC | 0.991
CAGCCGGAGT | 1.04
CCTTTGGCTG | 1.04
GCAAGAGAGA | 0.99
AACTGTATA | 1.15
TCTTCGACGT | 1.03
AAAGTAGAG | 0.989
TCCGTATCCT | 1.06
TCGGCTAGGG | 0.994
ACGTTGTGGC | 1.03
AATTTGGTGT | 0.996
AAGGAACTAA | 1.01
TACCCCGGGG | 1.04
ATGCATCTTG | 0.983
CCTCGTAGCG | 1.06
TCACTTTAAC | 1.06

Sequence | switch fluorescence ratio
ACCGGACATT | 1.18
CTAAGAGGCT | 1.02
ATTTAACTGA | 0.989
GCCAATCACA | 1.05
GAGTCGACAA | 1.03
AAGGGGAACC | 0.968
CCGATTGAGT | 1.01
CGGAAGTAAC | 1.17
GGACCTTCTG | 1.01
ACATATTGAC | 1.04
CTACAGTGTT | 0.987
GGAGCCAGGT | 1.08
TTAAGACCTG | 1.03
AACTTAAGAA | 1
AGCACGCTTG | 1
TATCTACCTT | 1.15
TTTCCGGTAG | 2.11
TGGTCAAATA | 1.02
CGTTTGCC | 1
AACGTGTTG | 0.989
AAAGGTATAG | 1.03
AGTAATGGCA | 0.94
GTCGATAGAG | 0.966
ATGGGTCTGG | 0.997
ATCTATAAAG | 1.01
AGAGCGCTTG | 1.01

Sequence | switch fluorescence ratio
CTATAGCCCT | 0.94
TGCTAGCAGA | 0.977
CGCCAACGCG | 1.02
GGTTCCCGTG | 1.07
TCAATCGAGA | 0.995
CAGGTGGGCC | 1.01
TTGCTTCTTG | 1.03
TCCAACAGCG | 1.06
TCCACGTTTG | 1.03
TTTACTT | 1.03
GGCGGAAACC | 1.03
GTCTTCCGTG | 0.996
CATTTAATCT | 1.01
GGAAGCAAGT | 1.07
ATATGTGTT | 0.968
GAAGGATCCG | 1.05
GGCTTGCATT | 0.988
CTTAGGAGTG | 1.03
TGTTTTTTA | 1.05
CATGCGACCG | 0.984
TTCACTGCCT | 1.13
CTTCTAAACG | 1.12
TGTCTGAGTT | 0.955
GTATCCATGT | 1.01
ATGACGAATT | 1
TGGTTCTCAC | 1.02

Sequence | switch fluorescence ratio
TCCCACA | 1.26
GCATATCTAA | 1.05
TAGAGTCCGG | 1.01
GGAAAAAATT | 1.01
CATTATTCCG | 0.956
CGGTAAGCAT | 1.07
GGATCATCTG | 1.04
AGTATGTAGA | 1.02
TAAAGACTCG | 0.983
TCCGTCATG | 1.14
AGTCGACCAG | 1.04
ATAGTGTTTC | 0.979
CGTCGGGGTC | 1
TGGCTGTACT | 1.02
GGGGATCTTG | 1.03
GATTCCTGAC | 1.65
TCCACCTGGT | 1.49
TGGTCTTGAG | 0.95
GTTCTAAATG | 1.01
ATCTGGTTAT | 1.01
AGATTCGGGC | 1
ACCAGCATTT | 1
CCAGCGTT | 1.04
CGATTGTAGA | 1.02
TGTTTGCAGT | 0.992
TCAATTCGGT | 1.03

Sequence | switch fluorescence ratio
AAGAACGCAT | 1.16
TCGCCGGGGA | 1.04
TGCTTTGTTT | 1.01
TAACGTGCAT | 1.02
TGGTCCGGAA | 1.32
GGTATCGCTG | 0.887
TGGCTTGGAA | 0.979
TTGATGACAA | 0.999
CAGTCAGCTC | 1.07
CATGTCCAGT | 1
CTTGGGCGAA | 0.989
GACAGCGC | 1.12
TTAATACGTA | 1.07
CGAAAATTGC | 1
ACTCTGAATA | 1.42
AGTCGCTC | 1
CTTGCCTGAT | 1.01
ACATCAAGTA | 1.04
CGGTGCATCG | 0.979
ACCCACTAAC | 1.43
AGGTGGCAA | 1.06
CATCTTGTCT | 0.999
GTGTCGATCG | 1.06
CCCGTATTTT | 1.02
GAGAGATGAT | 1.28
TATAATCGTT | 0.99

Sequence | switch fluorescence ratio
TGTGGGAAAG | 0.976
CGCAGTCCAG | 1.22
GTCTTAGTT | 0.982
GCGAGTTTGA | 0.973
CCATGCAATT | 3.85
GCGAATCCCG | 1.07
AAAAATGCTG | 1.05
GTTGGAGTGA | 0.988
TAGGCCTTGG | 1.02
GCTACGGGGA | 1.07
CTCAGATAGA | 1.06
GCCGGATATA | 1
CCGGCCGGAT | 1.06
TCACGTTGAG | 1.05
GTGTTTTCTA | 1.04
CTCTTGTGAT | 1.02
GCTCAGTATT | 0.996
CAAACGTCGA | 1.2
GGATATACGG | 1
GAGTATGGT | 1.01
TGATCTAAAC | 1.03
ATATGAGAAT | 0.978
TTAATATGTG | 1
ACTGTTTGCC | 1.3
TAACAAGTGG | 2.24
TCGGCCAAGG | 1.13

Sequence | switch fluorescence ratio
CGTCGACATG | 0.947
TTCCAACCAG | 1.05
TGCGCTGTGT | 1.02
GTGTCATCGA | 1.03
GTGCAATAGC | 1.92
ATGACGGACC | 1.07
ACACGCACAT | 1.61
TTTATGCGC | 1.03
AGTTCCGCGG | 1.03
CGTTGTTGAC | 1.04
GAAACGCCCG | 1.07
CCTCTTACCG | 1.07
CCCAAATAAG | 1.05
TGATGAATTT | 0.958
ACGTTACAGT | 1.54
TCATAGATCC | 1
ACGCCGACAC | 1.69
ATAGAGTTAC | 1
TTACTGAGGG | 1.08
TAGTGGGGAA | 0.967
GAGTCTGCTA | 1.69
TCGGTGATTT | 0.989
AGCGTACTGC | 1.09
AAGTTGGACT | 1.02
CCTGCCGC | 1.38
AATCGGTGGC | 0.969

Sequence | switch fluorescence ratio
TCTCAGATCT | 1.02
CTTAAAGCAG | 1.03
CTGCAAAGAA | 1.02
AGTTCCAGT | 0.977
CCTCCCCTTG | 2.43
AGGACGGTTG | 0.962
GGGTCTGGG | 0.999
TAAGCAACTT | 1.09
TGAGTGAGTT | 0.97
TATCACTGAC | 1.56
CCCAGAGCCA | 1.11
TTATACCTGA | 1.08
GACACAATT | 1.09
AACGAATCCT | 1.07
TTACCTGGTG | 1.84
TTCAGTACGG | 1.03
CCAGTGGCGC | 1.03
AAAAATATTA | 1.03
TTAATTTCTC | 1.02
